Measurements from the supplement of paper PMC7125110.
± gives the standard error. Variants at the background level are over-represented here.

B1: glmS ribozyme (parent)
chain: AUAAAAGCGCCAGAACUACAGAAAUGUAGUUGACGAGGAGGAGGUUUAUCGAAUUUUCGGCGGAUGCCUCCAAA

Assays:
Settings in all cases: with glucosamine-6-phosphate
[1] = variants of: B1; assay: self-cleavage kobs at 640 uM GlcN6P; higher = faster cleavage; RNA array
Summary of the method: (§1)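 Glucosamine-6-phosphate (40 μM to 10 mM) in HEPES/KCl/Mg(OAc)2 buffer was flowed over sequenced MiSeq chips, and tiles were imaged over ~14 h. Barcoded ribozyme variants there had been transcribed in situ by E. coli RNA polymerase and were tracked through a hybridised Cy3 probe at 37 °C. One- or two-exponential decay fits to per-tile medians, normalised to baseline and to non-cleaving reference variants, gave kobs. kcat and KM came from weighted Michaelis–Menten fits across concentrations.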

[2] = variants of: B1; assay: self-cleavage kobs at 2500 uM GlcN6P; higher = faster cleavage; RNA array
Summary of the method: as §1

[3] = variants of: B1; assay: self-cleavage kobs at 160 uM GlcN6P; higher = faster cleavage; RNA array
Summary of the method: as §1

[4] = variants of: B1; assay: self-cleavage kobs at 10000 uM GlcN6P; higher = faster cleavage; RNA array
Summary of the method: as §1

Variant | self-cleavage kobs at 640 uM GlcN6P [1] [s⁻¹] | self-cleavage kobs at 2500 uM GlcN6P [2] [s⁻¹] | self-cleavage kobs at 160 uM GlcN6P [3] [s⁻¹] | self-cleavage kobs at 10000 uM GlcN6P [4] [s⁻¹]
C16G U30A U55G | 0.000125 ± 5.7e-05 | 8.11e-05 ± 3.1e-05 |  | 
G29C G60U | < 1e-05 | < 1e-05 | < 1e-05 | < 1e-05
A36C A39G G62C | < 1e-05 |  |  | 
A12C U54G C68G | 4.37e-05 ± 1.2e-05 | 5.51e-05 ± 1.5e-05 |  | 
A15G G29U G43C | < 1e-05 |  | < 1e-05 | 
G35U C67U | < 1e-05 | < 1e-05 | < 1e-05 | 
G13A U31A G32A C50G C67G | 4.97e-05 ± 2.2e-05 |  |  | 
C16G G62C | < 1e-05 | < 1e-05 | < 1e-05 | 
A33G A39G G51U C58U | < 1e-05 |  |  | 
G37A G51U U57G C68A | < 1e-05 |  |  | 
G13U G51C | < 1e-05 |  |  | < 1e-05
U31A U54A C68A | 6.98e-05 ± 2.6e-05 |  |  | 
A12U G35A G40U | < 1e-05 | < 1e-05 | < 1e-05 | 
A39G U47G G59C | < 1e-05 |  |  | 
U31G U55C G62U | < 1e-05 |  |  | 
C19A A33U C50G U56C C58U G63U C68G | 0.000599 ± 0.00016 |  |  | 
G38A G41C U54G C61A | < 1e-05 | < 1e-05 |  | 
C34U A52U G59U | < 1e-05 |  |  | 
A12U C50A A64U | < 1e-05 |  |  | 
A14C G43U U49A C50G | < 1e-05 | < 1e-05 |  | 
A33C G35U C68U | < 1e-05 | < 1e-05 | < 1e-05 | 
A14C A15G C34G A39U | < 1e-05 | < 1e-05 |  | 
G38A U45C C70G | < 1e-05 |  |  | 
C11G G40A G66A U69G | < 1e-05 | < 1e-05 |  | 
A14C G40C C58A G66U | < 1e-05 |  |  | < 1e-05

Variant | self-cleavage kobs at 640 uM GlcN6P [1] [s⁻¹] | self-cleavage kobs at 2500 uM GlcN6P [2] [s⁻¹] | self-cleavage kobs at 160 uM GlcN6P [3] [s⁻¹] | self-cleavage kobs at 10000 uM GlcN6P [4] [s⁻¹]
U31G G41C G44U C50G | < 1e-05 | < 1e-05 | < 1e-05 | 
A14U A39G G43A | < 1e-05 |  | < 1e-05 | 
A33U A39U A64G G66C | < 1e-05 |  |  | 
A36U C58U G66C | < 1e-05 |  |  | 
G32C G44A A48U | < 1e-05 | < 1e-05 | < 1e-05 | 
A33G C34G | < 1e-05 | < 1e-05 |  | < 1e-05
A15C G35C | < 1e-05 | < 1e-05 | < 1e-05 | < 1e-05
A15G U47C G63A | < 1e-05 | < 1e-05 | < 1e-05 | 
A12U G32A G35U | < 1e-05 |  | < 1e-05 | 
G13A G43A C50G C61G | < 1e-05 |  |  | 
C11G C16G G41A | < 1e-05 |  |  | 
G29A U30G A52G | 7.23e-05 ± 1.9e-05 | 0.000399 ± 9.4e-05 |  | 
A33G U56C G60C | < 1e-05 |  |  | 
A14G G35A U45G G66U | < 1e-05 |  |  | 
U31C G51U G59A C61U | < 1e-05 |  |  | 
A12C G32C G60C | < 1e-05 | < 1e-05 |  | < 1e-05
A15G C58G C68U | 6.1e-05 ± 1.7e-05 | 5.67e-05 ± 1.6e-05 | 8.66e-05 ± 3.1e-05 | 3.61e-05 ± 1.6e-05
A12G U45G | 6.36e-05 ± 1.3e-05 | 0.000197 ± 4.2e-05 |  | 0.000386 ± 3.9e-05
A33U G63A | < 1e-05 | < 1e-05 | < 1e-05 | 
G37U G43U G63U C67G | < 1e-05 | < 1e-05 |  | 
A15C A36C C67U | < 1e-05 | < 1e-05 | < 1e-05 | 
G38U A48U | < 1e-05 | < 1e-05 | < 1e-05 | 
G13U A33G G59U U69A | < 1e-05 |  |  | 
A14G G63C | < 1e-05 |  | < 1e-05 | < 1e-05
C11U G37A U57G G63A | < 1e-05 |  |  | 

Variant | self-cleavage kobs at 640 uM GlcN6P [1] [s⁻¹] | self-cleavage kobs at 2500 uM GlcN6P [2] [s⁻¹] | self-cleavage kobs at 160 uM GlcN6P [3] [s⁻¹] | self-cleavage kobs at 10000 uM GlcN6P [4] [s⁻¹]
G13U C50U U65C | < 1e-05 |  |  | 
G13C C16U A36G U69C | < 1e-05 |  |  | 
G13U A42C U54A U55G | < 1e-05 | < 1e-05 | < 1e-05 | 
A12G U46G U49C | < 1e-05 |  | < 1e-05 | 
A36U G60C | < 1e-05 | < 1e-05 | < 1e-05 | < 1e-05
G38U U65G C70U | < 1e-05 |  | < 1e-05 | 
A15U G44U U49C | < 1e-05 | < 1e-05 |  | 
G29U A33G G60U G62C | < 1e-05 |  |  | 
G32A G44U A48U C70G | < 1e-05 | < 1e-05 |  | 
C34U G43C U55A | < 1e-05 |  |  | 
C34U G38A G44U | < 1e-05 | < 1e-05 | < 1e-05 | 
A15U G38A A42C U45A | < 1e-05 |  |  | 
C11A G43U U55A | < 1e-05 |  |  | 
G13U A15G G40C U57C G62C | < 1e-05 |  |  | 
A14C G35C A39C | < 1e-05 |  |  | 
C11U G51U U54G G59U C70U | < 1e-05 |  |  | 
A33G C34G A36C C68A | < 1e-05 |  |  | 
C16A G62C U69A | < 1e-05 |  |  | 
A14U U30C G43A | < 1e-05 | < 1e-05 | < 1e-05 | 
G35C A39C U57C | < 1e-05 | < 1e-05 |  | 
G32C U69A | 0.00639 ± 0.0029 |  | < 1e-05 | 2.46e-05 ± 1.2e-05
G32U G44U C50U G60A | < 1e-05 |  |  | 
A14U U46C C70U | 0.000206 ± 5e-05 |  |  | 
C34U G51C U54A | < 1e-05 | < 1e-05 |  | 
G35U A39U G60U | < 1e-05 | < 1e-05 |  | 

Variant | self-cleavage kobs at 640 uM GlcN6P [1] [s⁻¹] | self-cleavage kobs at 2500 uM GlcN6P [2] [s⁻¹] | self-cleavage kobs at 160 uM GlcN6P [3] [s⁻¹] | self-cleavage kobs at 10000 uM GlcN6P [4] [s⁻¹]
G32A G40U A48U | < 1e-05 |  |  | 
A14C C58U G62C | < 1e-05 |  |  | 
G13C G62U G66C | < 1e-05 | < 1e-05 |  | 
A15U U31A A48U C58G C61A | < 1e-05 | < 1e-05 |  | 
G32A G51C | < 1e-05 | < 1e-05 | < 1e-05 | 
G29U G41U C50U | < 1e-05 |  |  | < 1e-05
C34G A36G C71U | < 1e-05 |  |  | 
C16G A39U C68A | < 1e-05 |  |  | < 1e-05
A39C A52G C61G | < 1e-05 |  | < 1e-05 | 
U30G G41A U55C G63U | < 1e-05 | < 1e-05 |  | 
C11G C50G A52U | < 1e-05 | < 1e-05 |  | 
G29C G43A | < 1e-05 |  |  | 
G29U U49G G63C | < 1e-05 |  |  | 
U31G G41U | 0.000154 ± 6.3e-05 | 0.000806 ± 0.00017 | 6.71e-05 ± 1.8e-05 | 0.000505 ± 0.0001
C11U U47C | 4.05e-05 ± 1.7e-05 |  |  | 
A36G U47G | < 1e-05 |  |  | < 1e-05
G38U U56A | < 1e-05 |  |  | 
G13U G29A G40A U65G | < 1e-05 |  |  | 
G38U U47C G63C | < 1e-05 |  |  | 
A12U G32C C50U | < 1e-05 | < 1e-05 |  | 
A33U G60C A64U | < 1e-05 |  |  | 
A14G G62A U65G | < 1e-05 | < 1e-05 |  | 
A36C G66C | < 1e-05 |  | < 1e-05 | < 1e-05
C11G C50U G66U | < 1e-05 |  |  | 
G32C G38A C50G | 0.000119 ± 3e-05 |  | 0.000156 ± 5.3e-05 | 

Variant | self-cleavage kobs at 640 uM GlcN6P [1] [s⁻¹] | self-cleavage kobs at 2500 uM GlcN6P [2] [s⁻¹] | self-cleavage kobs at 160 uM GlcN6P [3] [s⁻¹] | self-cleavage kobs at 10000 uM GlcN6P [4] [s⁻¹]
A12C A39G G44U A53C G63C | < 1e-05 |  |  | 
C11A U30C A53C C71U | < 1e-05 |  |  | 
G29C C68G | 5.49e-05 ± 1.9e-05 |  |  | 
G29C G40A G44U A64G | < 1e-05 | < 1e-05 |  | 
C34U G41A C68U | < 1e-05 |  |  | 
A14G G40A G41U G66A | 0.000149 ± 3.6e-05 | 0.000356 ± 9.3e-05 |  | 0.000645 ± 0.0001
C11G U45A C68G | < 1e-05 | < 1e-05 |  | 
G32A G44U U46C C50G | < 1e-05 |  |  | 
A14C U54C U57A G60A C70U | < 1e-05 | < 1e-05 | < 1e-05 | 
G32C U49A C50G | < 1e-05 | < 1e-05 | < 1e-05 | 
A12C U46A G62C | < 1e-05 |  |  | 
A14G U46A G63U | < 1e-05 | < 1e-05 |  | 
G37C G62U C68U | < 1e-05 | < 1e-05 |  | 
C11U A53C | 8.09e-05 ± 1e-05 | 0.000307 ± 4.8e-05 | 3.37e-05 ± 1.3e-05 | 0.000412 ± 6.8e-05
G29U A64U | < 1e-05 |  | < 1e-05 | 
A14C G43U U56A C68U | 9.14e-05 ± 2.6e-05 | 0.000133 ± 3.7e-05 |  | 
G29U U69C | 0.000356 ± 9e-05 | 0.000114 ± 3.1e-05 | 3.84e-05 ± 1.5e-05 | 
G29A A33U G44U | < 1e-05 |  |  | 
G13C C34G G35C A52C | < 1e-05 | < 1e-05 |  | 
G32C A64U | < 1e-05 | < 1e-05 | < 1e-05 | < 1e-05
G35U C67A U69C | < 1e-05 |  |  | 
U30G A39U U65C | 0.000103 ± 3.8e-05 |  |  | 0.000419 ± 6.3e-05
